The whole screen tested about 120,000 compounds, of which about 5,300 (4.4%) were called active. Inconclusive results, whose numbers are uncertain, are shown with a selection of clear calls. The call rests on the fitted dose curve; in most records, active means well fitted inhibition curve with a large enough effect; inconclusive means small, poorly fitted or top-dose-only effect; inactive means no such curve, though single readings can be large or run the other way. Where the call is inconclusive, the potency comes from a doubtful curve fit.
Test: qHTS Primary assay for Inhibitors of Plasmodium falciparum Dd2 growth in vitro; further: nearly all actives have a fitted effect of over 65% in size
Conditions: P. falciparum Dd2 growth, SYBR Green, 72 h; series mostly up to 28.9 µM
Outline: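 Readout: SYBR Green fluorescence, 485 nm excitation, 535 nm emission, after ~16 h lysis at 37C. Before that, Dd2-infected red cells (2.5% hematocrit) grew 72 h with compound, 29 uM top final concentration.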
Potency means the concentration at half of the fitted maximal effect; tags describe the fitted curve by direction and shape.

SMILES | Potency
COc1ccc(Cl)cc1NC(=O)N1CCC2(CC1)Oc1ccccc1C(=O)N2Cc1ccc(F)cc1 | active: 12.6 µM
CCOC(=O)c1cnn(-c2cccc(Cl)c2)c1C1CCN(C(=O)OC(C)(C)C)CC1 | inconclusive: 17.8 µM [inhibitor, single point]
Cc1nn(C)cc1-c1ccnc(NCCCN2CCCC(CO)C2)n1 (stereo not drawn) | inconclusive: 10 µM [inhibitor, single point]
CN1CC(=O)N(c2ccccc2)Cc2c(NCCCc3ccccc3)ncnc21 | active: 6.31 µM
COc1cccc(CN2C[C@@H]3C(=O)N(Cc4ccc5c(c4)OCO5)C(=O)[C@@H]3C2)c1 | inactive
CCCc1ccc(OC(=O)c2sc3ncn(Cc4cccc(F)c4)c(=O)c3c2C)cc1 | inconclusive: 17.8 µM [inhibitor, single point]
CCCN(CCC)C(=O)c1coc(COc2ccc3sc(C)nc3c2)n1 | inactive
O=[S+]1([O-])NCC2(CCN(Cc3ccccc3)C2)Oc2ncccc21 (stereo not drawn) | inconclusive: 8.91 µM [inhibitor, partial curve, poor fit]
COc1cccc(NC(=O)N(C[C@H]2O[C@H](Cc3cc(-c4ccccc4)on3)CC[C@@H]2O)C(=O)Nc2cccc(OC)c2)c1 | inconclusive: 10 µM [inhibitor, single point]
COc1ccc(CCC(=O)N2CCC[C@H]2c2nc(-c3ccccc3)no2)cc1 | inactive
O=C(N[C@H]1CCN2C(=O)c3cc(-c4cccc(C(F)(F)F)c4)ccc3NC(=O)[C@H]12)c1cnccn1 | inconclusive: 12.6 µM [inhibitor, single point]
CCc1ncc(-c2c(-c3ccccc3)ncn2CCCOc2cccnc2)cn1 | inconclusive: 2.24 µM [inhibitor, full curve, poor fit]
COc1ccc2c(c1)C1(CCN(C(=O)c3cccc(C)c3)C1)C(=O)N2C (stereo not drawn) | inconclusive: 17.8 µM [inhibitor, single point]
O=C1CC2(CCN([S+](=O)([O-])c3cccc(C(F)(F)F)c3)CC2)Oc2ccccc2N1c1ccccc1 | inconclusive: 1.78 µM [inhibitor, full curve]
Cc1nc([C@@H]2CN(C3CCN(CCc4ccccc4)CC3)C[C@H]2C(N)=O)n[nH]1 | inactive
CCC1c2nccn2CCCN1C(=O)c1nn(C)c2ccccc12 (stereo not drawn) | inconclusive: 7.94 µM [inhibitor, partial curve, poor fit]
CC1(c2ccccc2)N(Cc2ccccc2)C(=O)OC12CCN(C(=O)Cc1cccc(F)c1)CC2 (stereo not drawn) | inconclusive: 3.55 µM [inhibitor, partial curve, poor fit]
CN1CCN(c2ccc(-c3nc(-c4ccccc4)no3)cc2[N+](=O)[O-])CC1 | inconclusive: 17.8 µM [inhibitor, single point]
COc1cncc(Nc2ncc(-c3cccc(N(C)C)c3)c3c2OCC3)c1 | active: 7.08 µM
Cc1cnc(C(=O)NC2C[C@H]3CC[C@@H](C2)N3C(=O)C2CC2)cn1 (stereo partly drawn) | inactive
CC(C)Oc1ccc(CNC(=O)c2cc(-c3ccncc3)cn2C)cc1 | inconclusive: 15.8 µM [inhibitor, single point]
Cc1ccc(-c2onc(C)c2C)cc1S(=O)(=O)N1CCc2ccccc21 | inconclusive: 11.2 µM [inhibitor, partial curve]
Cc1ccc(-c2cc3c(=O)n(CCNC(=O)c4cc(F)ccc4F)ccn3n2)cc1C | inconclusive: 17.8 µM [inhibitor, single point]

SMILES | Potency
Cc1cccc(C)c1CN1CCC2(Cc3ccccc3CNC2=O)C1 (stereo not drawn) | inactive
CNC(=O)CCn1ncc2cc(OCc3ccccc3-c3cccc(CO)c3)ccc21 | inconclusive: 11.2 µM [inhibitor, partial curve, poor fit]
COc1ccc(-c2cc(-c3ccc4cn[nH]c4c3)cn3cncc23)cn1 | inconclusive: 3.16 µM [inhibitor, single point]
Cc1cccc(OCCc2noc(C3CCCCN3C(=O)c3ccc(C)nc3)n2)c1 (stereo not drawn) | inactive
COc1cccc(CNC(=O)C2CCN(c3cn[nH]c(=O)c3)C2)c1OC (stereo not drawn) | inactive
O=S1(=O)NC2(CCCN(CCc3ccccc3)C2)COc2ccccc21 (stereo not drawn) | inconclusive: 7.08 µM [inhibitor, partial curve]
CC(=O)Nc1cc(-c2cn(C)c(=O)n3cc(CN4CC[S+](=O)([O-])CC4)nc23)ccn1 | inactive
COc1ccccc1CSc1nc2n(n1)C(c1ccccc1)C(C(=O)Nc1ccc(C)cc1)=C(C)N2 (stereo not drawn) | inconclusive: 17.8 µM [inhibitor, single point]
O=C(c1ccoc1)N1CCCN(C2CCC3(CCNCC3)CC2)CC1 | inactive
O=C1N(c2ccccc2)C[C@H]2CN(C3CCOCC3)CCN12 | inactive
CCCc1ccc(S(=O)(=O)N2C[C@@H]3C(=O)N(C(CC)c4cccs4)C(=O)[C@@H]3C2)cc1 (stereo partly drawn) | inconclusive: 20 µM [inhibitor, single point]
CCOC(=O)c1c(NC(=O)COc2ccc(OC)cc2)sc(C(=O)N(CC)CC)c1C | active: 11.2 µM
O=c1n(-c2cccc(Cl)c2)nc2n1CCN(Cc1ccccc1)C2 | inconclusive: 7.08 µM [inhibitor, partial curve, poor fit]
CCCCN(CC)CCNC(=O)c1nn(-c2ccc(OC)cc2)c(=O)c2c1c1ccccc1n2C | inconclusive: 17.8 µM [inhibitor, single point]
COc1ccc(OC)c(NC(=O)C2CCc3ncc(-c4ccsc4)n3C2)c1 (stereo not drawn) | inconclusive: 8.91 µM [inhibitor, partial curve]
CCC1=Nc2cc(C(=O)N3CCC(C)CC3)ccc2Sc2ccc(C)cc21 | inconclusive: 20 µM [inhibitor, partial curve, poor fit]
Cc1ccc(CN2C[C@@H]3C(C(N)=O)=NO[C@@H]3C2)nc1 | inactive
Cc1ccc(-c2cccc(CN)c2)c(C)c1 | active: 14.1 µM
O[C@@H]1C[C@@H](c2nc(-c3ccncc3)no2)N(Cc2ccc(F)cc2)C1 | inconclusive: 2.24 µM [inhibitor, full curve, poor fit]
COc1cccc(CN2CCCC(O)(CN3CCCCC3)C2=O)c1 (stereo not drawn) | inconclusive: 8.91 µM [inhibitor, partial curve]
O=C1Nc2ccccc2C12CCN(Cc1ccc(F)cc1)C2 (stereo not drawn) | inconclusive: 10 µM [inhibitor, single point]
COCCNC(=O)c1sc2nc3n(c(=O)c2c1C)CCC3 | inactive
O=C(Cc1cccnc1)NCC(=O)N1CCCCCCNC(=O)CC1c1ccccc1 (stereo not drawn) | inactive

SMILES | Potency
O=C1NCCOCCCN(C(=O)CC2CCCC2)[C@H]2CCCC[C@@H]12 | inactive
C=C[C@H]1CN2CC[C@H]1C[C@@H]2CNCc1cccc(C#N)c1 | inconclusive: 1.41 µM [inhibitor, partial curve, poor fit]
Cc1nc(NC(=O)C2c3ccccc3C(=O)N(C3CCCC3)C23CCCC3)sc1C (stereo not drawn) | inconclusive: 2 µM [inhibitor, partial curve, poor fit]
CCn1nccc1C(=O)N1CCC2(CC1)c1[nH]c3ccc(OC)cc3c1CCN2C | inconclusive: 6.31 µM [inhibitor, single point]
COCCn1c(=O)[nH]c2cc(C(=O)N3CCN(c4ccc(F)cc4)CC3)ccc2c1=O | inconclusive: 5.01 µM [inhibitor, partial curve]
COC(=O)c1ccc2nc(C[C@@H]3C[C@@H](C(C)C)[C@H](CNC(=O)CC4(CC(=O)O)CCCC4)C=C3C)[nH]c2c1 | inactive
Fc1ccc2c(c1)nc1n2[C@@H](CNCc2ccncc2F)COC1 | inactive
COC(=O)[C@@H]1Cc2c([nH]c3ccccc23)[C@H]2C[C@@H](NC[C@H]3CCCO3)C[C@@H](c3ccccc3F)N21 | inactive
Cc1cccc(OCC(=O)Nc2ccc(S(=O)(=O)N(Cc3ccccc3)c3ccccc3)cc2)c1 | inactive
Cc1ccc(C)c(N2CCN(c3nc4ccccc4n4nnnc34)CC2)c1 | inconclusive: 17.8 µM [inhibitor, single point]
CNC(=O)N1CCC(C2CCN(C(=O)CCCC(=O)O)C2)CC1 (stereo not drawn) | inconclusive: 0.141 µM [inhibitor, full curve, poor fit]
COc1cccc(-c2cc(CC3(O)CCN(c4nnc(C)o4)CC3)on2)c1 | inactive
O=C(Cn1nc2c(cc1=O)CCCC2)NC1CCCc2c1[nH]c1ccccc21 (stereo not drawn) | inactive
CCC1(O)CCC12CCN(C(=O)CC(C)C)CC2 (stereo not drawn) | inactive
CCCn1c(=N)c(C(=O)NCc2ccccc2)cc2c(=O)n3cccc(C)c3nc21 | inconclusive: 3.98 µM [inhibitor, single point]
COc1ccc(Nc2ccc3c(n2)CN(Cc2ccccc2C)C(=O)CO3)cc1 | inconclusive: 31.6 µM [inhibitor, single point]
C=CCNc1ncnc2c1CCN(C(=O)COCC1CCCO1)CC2 (stereo not drawn) | inactive
CNC1CCN(C(=O)c2cnc(C34CC5CC(CC(C5)C3)C4)[nH]c2=O)CC1 | inactive
NC(=O)[C@@H](Cc1ccccc1)NC(=O)C1=C[C@@H](NC(=O)c2ccco2)[C@@H](O)[C@H](O)C1 | inactive
O=C(c1ccc2cc[nH]c2c1)N1CCC(N2CC(OCC3CC3)C23CCOCC3)CC1 (stereo not drawn) | inconclusive: 12.6 µM [inhibitor, single point]
Cc1oc(-c2ccccc2F)nc1Cn1c(SCc2cccc(Cl)c2)nc2ccncc21 | inconclusive: 15.8 µM [inhibitor, single point]
CC(C)=CCN1Cc2ccccc2NC(=O)C12CCNC2 (stereo not drawn) | inactive
